# Measured values taken from the supplement of paper PMC8728848.
# This is one part of the list.
# Tests used:
# Assay in all cases: glycan array binding signal (z-score within array); higher = stronger binding
# Conditions in all cases: glycan notation: IUPAC condensed, linker removed
# [1] = molecular target: Man(a1-3)[Man(a1-6)]Man(a1-6)[Man(a1-3)]Man
# Outline: (§1)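 Glycan array binding is given as a within-array Z-score, which can be read as non-binding when negative. The arrays, 3228 of them, came from the Consortium for Functional Glycomics database and were retained only where the protein sequence was available. Z-scores were averaged across arrays of the same protein sequence at different concentrations or buffers and across linkers.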
# [2] = molecular target: Man(a1-3)[Man(a1-6)]Man(a1-6)[Man(a1-3)]Man(b1-4)GlcNAc(b1-4)GlcNAc
# Outline: as §1
# [3] = molecular target: Man(a1-3)[Man(a1-6)]Man(b1-4)GlcNAc(b1-4)GlcNAc
# Outline: as §1
# [4] = molecular target: Man(a1-3)[Man(a1-6)]Man(b1-4)GlcNAc(b1-4)[Fuc(a1-6)]GlcNAc
# Outline: as §1
# Man(a1-6)Man = molecular target: Man(a1-6)Man
# Outline: as §1
# Man(b1-4)GlcNAc = molecular target: Man(b1-4)GlcNAc
# Outline: as §1
# MurNAc(b1-4)GlcNAc = molecular target: MurNAc(b1-4)GlcNAc
# Outline: as §1
# Neu5Ac(a2-3)Gal = molecular target: Neu5Ac(a2-3)Gal
# Outline: as §1
# [5] = molecular target: Neu5Ac(a2-3)Gal(b1-3)GalNAc
# Outline: as §1
# [6] = molecular target: Neu5Ac(a2-3)Gal(b1-3)GalNAc(b1-3)Gal(a1-4)Gal(b1-4)Glc
# Outline: as §1
# [7] = molecular target: Neu5Ac(a2-3)Gal(b1-3)GalNAc(b1-4)[Neu5Ac(a2-3)]Gal(b1-4)Glc
# Outline: as §1
# [8] = molecular target: Neu5Ac(a2-3)Gal(b1-3)GalNAc(b1-4)[Neu5Ac(a2-8)Neu5Ac(a2-3)]Gal(b1-4)Glc
# Outline: as §1
# [9] = molecular target: Neu5Ac(a2-3)Gal(b1-3)GalNAc6S
# Outline: as §1
# [10] = molecular target: Neu5Ac(a2-3)Gal(b1-3)GlcNAc
# Outline: as §1
# [11] = molecular target: Neu5Ac(a2-3)Gal(b1-3)GlcNAc(b1-2)Man
# Outline: as §1
# [12] = molecular target: Neu5Ac(a2-3)Gal(b1-3)GlcNAc(b1-2)Man(a1-3)[GlcNAc(b1-4)][Neu5Ac(a2-3)Gal(b1-3)GlcNAc(b1-2)Man(a1-6)]Man(b1-4)GlcNAc(b1-4)GlcNAc
# Outline: as §1
# [13] = molecular target: Neu5Ac(a2-3)Gal(b1-3)GlcNAc(b1-2)Man(a1-3)[Neu5Ac(a2-3)Gal(b1-3)GlcNAc(b1-2)Man(a1-6)]Man(b1-4)GlcNAc(b1-4)GlcNAc
# Outline: as §1
# [14] = molecular target: Neu5Ac(a2-3)Gal(b1-3)GlcNAc(b1-3)Gal(b1-3)GlcNAc
# Outline: as §1
# [15] = molecular target: Neu5Ac(a2-3)Gal(b1-3)GlcNAc(b1-3)Gal(b1-4)GlcNAc
# Outline: as §1
# [16] = molecular target: Neu5Ac(a2-3)Gal(b1-3)GlcNAc(b1-3)GalNAc
# Outline: as §1
# [17] = molecular target: Neu5Ac(a2-3)Gal(b1-3)GlcNAc(b1-4)Gal(b1-4)Glc
# Outline: as §1
# [18] = molecular target: Neu5Ac(a2-3)Gal(b1-3)GlcNAc(b1-6)GalNAc
# Outline: as §1
# [19] = molecular target: Neu5Ac(a2-3)Gal(b1-3)GlcNAc6S
# Outline: as §1
# [20] = molecular target: Neu5Ac(a2-3)Gal(b1-3)[Fuc(a1-4)]GlcNAc
# Outline: as §1
# [21] = molecular target: Neu5Ac(a2-3)Gal(b1-3)[Fuc(a1-4)]GlcNAc(b1-3)Gal(b1-3)[Fuc(a1-4)]GlcNAc
# Outline: as §1
# [22] = molecular target: Neu5Ac(a2-3)Gal(b1-3)[Fuc(a1-4)]GlcNAc(b1-3)Gal(b1-4)[Fuc(a1-3)]GlcNAc
# Outline: as §1
# [23] = molecular target: Neu5Ac(a2-3)Gal(b1-3)[GlcNAc(b1-6)]GalNAc
# Outline: as §1
# [24] = molecular target: Neu5Ac(a2-3)Gal(b1-3)[Neu5Ac(a2-6)]GalNAc
# Outline: as §1
# [25] = molecular target: Neu5Ac(a2-3)Gal(b1-3)[Neu5Ac(a2-6)]GlcNAc(b1-3)[Fuc(a1-3)[Gal(b1-4)]GlcNAc(b1-6)]Gal(b1-4)Glc
# Outline: as §1
# [26] = molecular target: Neu5Ac(a2-3)Gal(b1-3)]Neu5Ac(a2-3)Gal(b1-4)]GlcNAc
# Outline: as §1
# Neu5Ac(a2-3)Gal(b1-4)Glc = molecular target: Neu5Ac(a2-3)Gal(b1-4)Glc
# Outline: as §1
# [27] = molecular target: Neu5Ac(a2-3)Gal(b1-4)GlcNAc
# Outline: as §1
# [28] = molecular target: Neu5Ac(a2-3)Gal(b1-4)GlcNAc(b1-2)Man
# Outline: as §1
# [29] = molecular target: Neu5Ac(a2-3)Gal(b1-4)GlcNAc(b1-2)Man(a1-3)[GlcNAc(b1-4)][Neu5Ac(a2-3)Gal(b1-4)GlcNAc(b1-2)Man(a1-6)]Man(b1-4)GlcNAc(b1-4)GlcNAc
# Outline: as §1
# [30] = molecular target: Neu5Ac(a2-3)Gal(b1-4)GlcNAc(b1-2)Man(a1-3)[Neu5Ac(a2-3)Gal(b1-4)GlcNAc(b1-2)Man(a1-6)]Man(b1-4)GlcNAc(b1-4)GlcNAc
# Outline: as §1
# [31] = molecular target: Neu5Ac(a2-3)Gal(b1-4)GlcNAc(b1-2)Man(a1-3)[Neu5Ac(a2-3)Gal(b1-4)GlcNAc(b1-2)Man(a1-6)]Man(b1-4)GlcNAc(b1-4)[Fuc(a1-6)]GlcNAc
# Outline: as §1
# [32] = molecular target: Neu5Ac(a2-3)Gal(b1-4)GlcNAc(b1-2)Man(a1-3)[Neu5Ac(a2-6)Gal(b1-4)GlcNAc(b1-2)Man(a1-6)]Man(b1-4)GlcNAc(b1-4)GlcNAc
# Outline: as §1
# [33] = molecular target: Neu5Ac(a2-3)Gal(b1-4)GlcNAc(b1-2)[Neu5Ac(a2-3)Gal(b1-4)GlcNAc(b1-4)]Man(a1-3)[GlcNAc(b1-4)][Neu5Ac(a2-3)Gal(b1-4)GlcNAc(b1-2)[Neu5Ac(a2-3)Gal(b1-4)GlcNAc(b1-6)]Man(a1-6)]Man(b1-4)GlcNAc(b1-4)GlcNAc
# Outline: as §1
binder,measurement,setting,value
Clec18C (Homo sapiens) (protein) MLHPETSPGRGHLLAVLLALLGTAWAEVWPPQLQEQAPMAGALNRKESFLLLSLHNRLRSWVQPPAADMRRLDWSDSLAQLAQARAALCGTPTPSLASGLWRTLQVGWNMQLLPAGLVSFVEVVSLWFAEGQRYSHAAGECARNATCTHYTQLVWATSSQLGCGRHLCSAGQAAIEAFVCAYSPRGNWEVNGKTIVPYKKGAWCSLCTASVSGCFKAWDHAGGLCEVPRNPCRMSCQNHGRLNISTCHCHCPPGYTGRYCQVRCSLQCVHGRLREEECSCVCDIGYGGAQCATKVHFPFHTCDLRIDGDCFMVSSEADTYYRARMKCQRKGGVLAQIKSQKVQDILAFYLGRLETTNEVIDSDFETRNFWIGLTYKTAKDSFRWATGEHQAFTSFAFGQPDNHGFGNCVELQASAAFNWNNQRCKTRNRYICQFAQEHISRWGPGS,glycan array binding signal (z-score),[1],-0.488
same,glycan array binding signal (z-score),[2],-0.479
same,glycan array binding signal (z-score),[3],-0.483
same,glycan array binding signal (z-score),[4],-0.555
same,glycan array binding signal (z-score),Man(a1-6)Man,-0.486
same,glycan array binding signal (z-score),Man(b1-4)GlcNAc,-0.573
same,glycan array binding signal (z-score),MurNAc(b1-4)GlcNAc,-0.578
same,glycan array binding signal (z-score),Neu5Ac(a2-3)Gal,-0.559
same,glycan array binding signal (z-score),[5],-0.592
same,glycan array binding signal (z-score),[6],-0.518
same,glycan array binding signal (z-score),[7],-0.335
same,glycan array binding signal (z-score),[8],-0.565
same,glycan array binding signal (z-score),[9],-0.524
same,glycan array binding signal (z-score),[10],-0.598
same,glycan array binding signal (z-score),[11],-0.01
same,glycan array binding signal (z-score),[12],-0.44
same,glycan array binding signal (z-score),[13],0.252
same,glycan array binding signal (z-score),[14],-0.592
same,glycan array binding signal (z-score),[15],-0.523
same,glycan array binding signal (z-score),[16],-0.458
same,glycan array binding signal (z-score),[17],-0.572
same,glycan array binding signal (z-score),[18],-0.247
same,glycan array binding signal (z-score),[19],-0.575
same,glycan array binding signal (z-score),[20],-0.506
same,glycan array binding signal (z-score),[21],-0.491
same,glycan array binding signal (z-score),[22],-0.276
same,glycan array binding signal (z-score),[23],-0.642
same,glycan array binding signal (z-score),[24],-0.524
same,glycan array binding signal (z-score),[25],-0.021
same,glycan array binding signal (z-score),[26],-0.528
same,glycan array binding signal (z-score),Neu5Ac(a2-3)Gal(b1-4)Glc,-0.357
same,glycan array binding signal (z-score),[27],-0.498
same,glycan array binding signal (z-score),[28],-0.08
same,glycan array binding signal (z-score),[29],-0.554
same,glycan array binding signal (z-score),[30],-0.489
same,glycan array binding signal (z-score),[31],-0.616
same,glycan array binding signal (z-score),[32],1.13
same,glycan array binding signal (z-score),[33],-0.577
